Data taken from publication PMC4336329 (PLoS ONE, 2015).
Out of some 310,000 compounds screened, about 2,200 (0.71%) showed an effect of 50% or more. Effects have a minus sign here. Some of the results follow.

molecular target: human ether-à-go-go-related gene (hERG) potassium channel (human, UniProt Q12809); assay: primary screen, population patch clamp on CHO cells stably expressing hERG
Sequence (Q12809 whole entry, looked up): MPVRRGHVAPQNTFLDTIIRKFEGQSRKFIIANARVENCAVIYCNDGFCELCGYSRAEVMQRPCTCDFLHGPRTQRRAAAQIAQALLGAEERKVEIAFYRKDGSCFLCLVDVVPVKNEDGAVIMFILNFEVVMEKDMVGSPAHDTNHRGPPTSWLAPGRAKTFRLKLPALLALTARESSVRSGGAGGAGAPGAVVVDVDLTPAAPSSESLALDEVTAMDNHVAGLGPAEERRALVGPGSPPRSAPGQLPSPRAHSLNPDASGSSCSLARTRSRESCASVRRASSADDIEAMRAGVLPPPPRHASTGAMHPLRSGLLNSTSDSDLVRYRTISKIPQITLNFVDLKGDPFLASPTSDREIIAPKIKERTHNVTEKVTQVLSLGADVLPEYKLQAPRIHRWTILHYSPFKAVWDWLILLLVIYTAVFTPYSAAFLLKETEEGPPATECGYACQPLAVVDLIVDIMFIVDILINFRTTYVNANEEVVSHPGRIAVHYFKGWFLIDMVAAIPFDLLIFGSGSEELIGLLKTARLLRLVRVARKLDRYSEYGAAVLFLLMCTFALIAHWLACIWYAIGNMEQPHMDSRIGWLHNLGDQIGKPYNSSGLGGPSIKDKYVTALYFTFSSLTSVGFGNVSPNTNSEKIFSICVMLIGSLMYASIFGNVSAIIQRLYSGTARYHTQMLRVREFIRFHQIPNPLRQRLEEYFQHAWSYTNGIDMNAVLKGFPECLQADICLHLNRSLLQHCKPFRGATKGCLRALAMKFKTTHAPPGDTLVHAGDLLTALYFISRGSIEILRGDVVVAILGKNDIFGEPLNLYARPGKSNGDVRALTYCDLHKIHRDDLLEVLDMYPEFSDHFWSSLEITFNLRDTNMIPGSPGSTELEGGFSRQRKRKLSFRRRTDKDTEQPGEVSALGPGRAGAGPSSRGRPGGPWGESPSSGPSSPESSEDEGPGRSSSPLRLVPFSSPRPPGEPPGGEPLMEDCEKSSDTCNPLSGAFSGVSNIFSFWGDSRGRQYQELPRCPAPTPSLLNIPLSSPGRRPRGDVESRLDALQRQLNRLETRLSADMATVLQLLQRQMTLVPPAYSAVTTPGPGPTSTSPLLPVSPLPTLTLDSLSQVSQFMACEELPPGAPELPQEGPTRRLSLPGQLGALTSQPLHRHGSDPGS

| Compound | hERG current change (%, negative = inhibition) at 1uM |
| --- | --- |
| O=C(N/N=C/C=C\c1ccc([N+](=O)[O-])cc1)c1cccnc1 | 9.28% |
| NS(=O)(=O)c1ccc(Nc2ccc3cc(S(=O)(=O)N4CCCCC4)ccc3n2)cc1 | 9.47% |
| COc1ccc(C(=O)CC(=O)c2ccccc2O)cc1OC | 4.69% |
| CCc1cc(C(=O)N2CCCC(C(=O)c3ccc(Oc4ccccc4)cc3)C2)n(C)n1 (stereo not shown) | 7.18% |
| CC/C(=N\NC(=O)c1c(C)nc2ccccn12)c1ccc(Cl)cc1 | -7.38% |
| Nc1c(N(Cc2ccco2)C(=O)c2ccc(Br)cc2)c(=O)[nH]c(=O)n1Cc1ccccc1 | 10.5% |
| O=c1[nH]c2ccccc2n1CCC1CCCCC1 | 5.31% |
| CCN1C(=O)C(CC(=O)Nc2ccc(OC)cc2)N(Cc2ccco2)C1=S (stereo not shown) | 0.703% |
| Cn1c(SCC2CCCCC2)nnc1-c1ccncc1 | 4.33% |
| O=C1CCC(=O)N1CCC(c1ccc(F)cc1)c1ccco1 (stereo not shown) | 6.73% |
| O=C1N/C(=N\c2ccccn2)SC1Cc1ccccc1Cl (stereo not shown) | 13.5% |
| CN1C(=O)/C(=C/c2ccc(O)c([N+](=O)[O-])c2)N(C)C1=S | -10.1% |
| Cc1ccc(S(=O)(=O)N(C)C)cc1NC(=S)NNC(=O)C(N)=O | 16.4% |
| CCOC(=O)N1CCN(C(=O)c2cc3c(=O)n4ccccc4nc3s2)CC1 | 7.85% |
| O=C(NCCc1cccc(F)c1)[C@@H]1CSC2c3ccccc3C(=O)N21 (stereo partly shown) | 0.16% |
| Cc1[nH]n(-c2cccc(Cl)c2)c(=O)c1-c1ccc(Cl)cc1 | 10.8% |
| CCOc1cccc2sc(=NC(=O)CCS(=O)(=O)c3ccccc3)n(CC)c12 | 10.6% |
| CC(C)C[C@H](NC(=O)CCCn1nnc2ccccc2c1=O)C(=O)O | 10.7% |
| c1ccc(NC2=NCCN2CC2CCCCC2)cc1 | 12% |
| CCN(CC(=O)NC1CCCCC1)S(=O)(=O)c1ccc(Cl)cc1 | 2.23% |
| Cc1ccccc1C(=O)OCCN1CCOCC1.Cl | 11.6% |
| CCCCCCCC(=O)NNC(=O)c1c(O)c2ccccc2n(CCC)c1=O | 10.6% |

| Compound | hERG current change (%, negative = inhibition) at 1uM |
| --- | --- |
| CCCc1cc(=O)oc2cc(C)cc(OC(C)C(=O)NCC(O)c3ccccc3)c12 (stereo not shown) | 6.92% |
| CN(C)S(=O)(=O)c1ccc(C(=O)OCC2CC2(Cl)Cl)cc1 (stereo not shown) | 13.1% |
| Cc1cc(-c2ccc(C)c(S(=O)(=O)N3CCN(c4ccc([N+](=O)[O-])cc4)CC3)c2)on1 | 1.89% |
| COc1cccc(C(=O)NCC(c2ccco2)N2CCOCC2)c1 (stereo not shown) | 5.26% |
| CN(C)/C=N/c1nc2ccc3c(c2s1)CCCC3 | 12.3% |
| Cl.c1ccc(-c2nc(NCc3ccco3)c3ccccc3n2)cc1 | 4.37% |
| COc1ccc(OCC(=O)N2CCC(Cc3ccccc3)CC2)cc1 | 9.32% |
| COc1ccc(-n2nnc3c(=O)n(C/C=C/c4ccccc4)cnc32)cc1 | -6.41% |
| N=c1c2c(-c3ccccc3)c(-c3ccccc3)n(Cc3ccco3)c2ncn1CCCn1ccnc1 | -63.6% |
| O=C(CN1CCN(c2ccccn2)CC1)Nc1cccc(Br)c1 | 2.24% |
| Clc1cc(Cl)c(OCCCCn2cncn2)c(Cl)c1 | -7.27% |
| O=C(CNC(=S)N(CCCN1CCOCC1)Cc1cccs1)N1CCCC1 | 7.33% |
| COc1ccc(OC)c(S(=O)(=O)N(C)CC(=O)N2CCN(c3ccccc3F)CC2)c1 | 4.96% |
| CC(C)CCOP(=O)(c1ccc(N(C)C)cc1)C(Nc1ccccc1)c1ccc(N(C)C)cc1 (stereo not shown) | 6.84% |
| COc1ccc(-c2c(-c3ccsc3)oc3ccc(N4CCOCC4)cc23)cn1 | 16.3% |
| CCOc1ccc2c(c1)/C(=N/N1C(=O)c3ccccc3C1=O)C(=O)N2 | 18% |
| O=C1C(=O)N(Cc2ccccc2)C(=O)N1CCN1C(=O)c2ccccc2C1=O | 8.16% |
| CCCCc1ccc(NC(=O)CSc2nc(=O)n(CCN3CCOCC3)c3c2CCC3)cc1 | -8.28% |
| O=C(NC1CCSc2ccccc21)c1ccc(C(F)(F)F)cc1 (stereo not shown) | 10.3% |
| CCCNC(=O)NC(=O)CSc1nc2ccccc2n1CC(C)C | 2.61% |
| Cc1[nH]c(=O)[nH]c(=O)c1CSc1nnc([C@H](CC(C)C)NC(=O)OC(C)(C)C)o1 | 9.06% |
| O=C(COc1ccc2c(c1)CCC2)N1CCN(c2ccccc2F)CC1 | 7.44% |

| Compound | hERG current change (%, negative = inhibition) at 1uM |
| --- | --- |
| CN(CC(=O)Nc1sccc1C#N)C1CCCCC1 | 10% |
| COc1ccc(NC(=O)c2nn(C34CC5CC(CC(C5)C3)C4)cc2[N+](=O)[O-])cc1 | 14.8% |
| COCCN(C(=O)C1CCN(C(=O)c2ccccc2C)CC1)c1c(N)n(CC(C)C)c(=O)[nH]c1=O | 10.9% |
| CC(=O)NCC1CCCN(Cc2cn(-c3ccccc3F)nc2-c2cc(C)sc2C)C1 (stereo not shown) | 7.3% |
| COc1ccc(Nc2nnc(C)c(=O)[nH]2)cc1 | 2.55% |
| N#Cc1ccc(-c2ccc(F)cc2)nc1Oc1ccc(F)cc1 | 9.55% |
| Cc1ccccc1OCCC(=O)OCC(=O)Nc1ccc(C(N)=O)cc1 | 13.5% |
| Cc1ccc(C(=O)Nc2ccc(C(=O)N3CCCCC3)cc2)cc1 | 3.35% |
| Cc1cccc(NC(=O)CN(C)S(=O)(=O)c2ccc(Br)cc2)n1 | -7.61% |
| CCOC(=O)c1c(NC(=O)CN2CCOCC2)sc2c1CCCC2=O | 9.51% |
| Cc1ccc(C(C)C)cc1OCC(=O)Nc1ccccc1N1CCCC1 | 8.72% |
| Cc1oc(-c2ccc(Cl)cc2)nc1CN1CCCC(C(=O)NCc2ccccn2)C1 (stereo not shown) | -44.2% |
| Cc1c(NC(=S)NC(=O)c2cc3ccccc3o2)c(=O)n(-c2ccccc2)n1C | 5.63% |
| CCC(=O)N1CC2(CC(c3cccc(NC(=O)CC(c4ccccc4)c4ccccc4)c3)=NO2)C[C@H]1C(N)=O (stereo partly shown) | 12.7% |
| N#Cc1c(-c2ccc(F)cc2)ccnc1N1CCOCC1 | 13% |
| c1ccc(NCc2nnc3n2CCCCC3)cc1 | 7.79% |
| CCc1ccc(Nc2nnc(SCC(=O)NCCN3C(=O)CSC3=O)s2)cc1 | 10.2% |
| COC(=O)c1[nH]c2ccc(Cl)cc2c1NC(=O)c1ccccc1[N+](=O)[O-] | 13.1% |
| Cn1c(=O)c2c(nc(N/N=C/c3ccncc3)n2Cc2ccccc2)n(C)c1=O | 4.79% |
| Cc1nc2sc(C(=O)c3ccccc3)c(N)c2c(C)c1C | 11.7% |
| COc1ccc(CNC(=O)CCNS(=O)(=O)c2ccc(Br)s2)cc1 | 11% |
| COc1ccc(N2CCN(C(=O)CSc3nnc(-c4ccco4)n3C)CC2)cc1 | 7.18% |

| Compound | hERG current change (%, negative = inhibition) at 1uM |
| --- | --- |
| O=C(Nc1ccc(OC(F)(F)F)cc1)C1=NCCN1 | -7.23% |
| CCCn1cnc2c(oc3ccccc32)c1=O | 9.9% |
| COC1CCCN(Cc2c(C(=O)N3CCN(C4CCCCC4)CC3)nc3ccccn23)C1 (stereo not shown) | 16.5% |
| Cc1nn(CCOc2ccccc2)c(=O)n1-c1ccccc1 | 8.84% |
| CC1(C)CC(=O)C2=C(C1)N(N1CCOCC1)C(N)=C(C#N)C2c1cccs1 (stereo not shown) | -2.85% |
| CCN(CC)C(=O)C1CCCN(c2ccc([N+](=O)[O-])cc2)C1 (stereo not shown) | -10.8% |
| Cc1ccc(C(=S)N2CCN(Cc3ccccc3)CC2)cc1 | 5.35% |
| COC(=O)C(NC(=O)c1ccccc1)=C(C)C | -4.15% |
| COc1ccccc1C(=O)Nc1ccc(-c2nnc(SCC(=O)O)n2C)cc1 | 17.6% |
| COCCn1c(SCC(=O)c2ccc3c(c2)OCCO3)nnc1-c1ccoc1C | 12.5% |
| C/C(CCc1ccco1)=N/NC(=O)CCC(=O)Nc1ccc(Br)cc1 | 11% |
| Cc1cc(C)c(NC(=O)CNC(=O)CNC(=O)C2CCCCC2)c(C)c1 | -2% |
| COc1ccc(Oc2ccc(-c3ccn[nH]3)cc2)cc1 | 2.05% |
| COc1cccc(C(c2ccccc2)N2C3CCC2CN(S(=O)(=O)c2ccc(F)cc2)CC3)c1 (stereo not shown) | -5.01% |
| CCc1nnc(NC(=O)C2CCCCC2)s1 | 4.85% |
| COCCNC(=O)c1ccc(N2CC3CC(C2)c2cccc(=O)n2C3)c(NC(=O)c2ccc(F)cc2)c1 (stereo not shown) | 11.3% |
| CCC(Sc1nc2cc3c(cc2c(=O)n1Cc1ccco1)OCO3)C(=O)Nc1ccccc1OC (stereo not shown) | 0.732% |
| O=C(COC(=O)c1cc(-c2cccs2)nc2ccccc12)NCc1ccco1 | -7.2% |
| CC(C)[C@H](NC(=O)NC1CCN(Cc2ccccc2)CC1)C(=O)O | 5.52% |
| O=C(CCCO)NNc1c2ccccc2nc2ccccc12 | 2.57% |
| COc1ccc(-c2nc(Cn3c(SCc4cccc(F)c4)nc4ccncc43)c(C)o2)cc1OC | -6.81% |
| Cc1nn(C)cc1-c1cc(C(=O)O)c2ccccc2n1 | 14% |
